This note sets out measurements from PMC11995724, “Antibiotic target discovery by integrated phenotypic and activity-based profiling of electrophilic fragments” (Cell chemical biology, 2025).

Among all 3,200 compounds or so, about 110 (3.4%) showed an effect of 50% or more. The list shows a part of the results.

In the assay the test system is T1, V. cholerae SAD30.
T1 construct: SAD30
Further details: species or system S. aureus MSSA476 (TSB) or V. cholerae SAD30 (LB); 384-well bacterial growth screen at 25 uM, OD600 relative to DMSO control. Particulars: relative growth, OD600, LB; 25 µM; inhibitor.
Regarding `O=C1C=CC(=O)N1c1ccc(F)cc1` [10-M10, 1-(4-fluorophenyl)-2,5-dihydro-1H-pyrrole-2,5-dione], the “% of control remaining” value turned out to be 16.8323%. In the case of `C=CC(=O)N1CCn2c(nnc2C2CCCC2)C1` [3-C09, 1-{3-cyclopentyl-5H,6H,7H,8H-[1,2,4]triazolo[4,3-a]pyrazin-7-yl}prop-2-en-1-one] it was 106.558%. In the case of `C=CC(=O)N(Cc1cn(C)cn1)[C@H]1CCCc2ccc(C)cc21` [1-J11, N-[(1S)-7-methyl-1,2,3,4-tetrahydronaphthalen-1-yl]-N-[(1-methyl-1H-imidazol-4-yl)methyl]prop-2-enamide], the “% of control remaining” value is given as 84.3049%. In the case of `CN(CC(=O)Nc1cccc(Cl)c1)C(=O)CCl` [5-F18, 2-chloro-N-{[(3-chlorophenyl)carbamoyl]methyl}-N-methylacetamide] it was 84.0601%.

Take `CC(Cl)C(=O)NC1(C(=O)Nc2ccccc2)CC1` (stereo not shown) [7-K14, 1-(2-chloropropanamido)-N-phenylcyclopropane-1-carboxamide]: the “% of control remaining” value is 78.2422%. Under `C=CC(=O)N(Cc1cn(C)nc1C)c1ccc2c(c1)OCCO2` [1-P13, N-(2,3-dihydro-1,4-benzodioxin-6-yl)-N-[(1,3-dimethyl-1H-pyrazol-4-yl)methyl]prop-2-enamide] stands 97.3094%; under `Cc1cc(CN(Cc2cnn(C)c2)C(=O)CCl)ccc1Cl` [5-G12, 2-chloro-N-[(4-chloro-3-methylphenyl)methyl]-N-[(1-methyl-1H-pyrazol-4-yl)methyl]acetamide], 89.9443%. On to `CN(CC(=O)Nc1ccc(Cl)cc1)C(=O)CCl` [4-D03, 2-chloro-N-{[(4-chlorophenyl)carbamoyl]methyl}-N-methylacetamide], for which the “% of control remaining” value came to 115.419%. Under `O=C(CCl)NC(c1ccccc1)C1CCCC1` (stereo not shown) [6-O18, 2-chloro-N-[cyclopentyl(phenyl)methyl]acetamide] stands 92.0656%; under `O=C(CCl)N1N=C(c2cccs2)CC1c1cccs1` (stereo not shown) [4-O18, 1-[3,5-bis(thiophen-2-yl)-4,5-dihydro-1H-pyrazol-1-yl]-2-chloroethan-1-one], 111.624%; under `C=CC(=O)N1CCCC(S(C)(=O)=O)C1` (stereo not shown) [1-J18, 1-(3-methanesulfonylpiperidin-1-yl)prop-2-en-1-one], 75.0736%.

Consider `O=C(CCl)Nc1ccc(S(=O)(=O)Nc2ccccc2)cc1` [5-K22, 2-chloro-N-[4-(phenylsulfamoyl)phenyl]acetamide], for which the “% of control remaining” value stood at 119.197%. On to `C=CC(=O)NCCNC(=O)c1c(C)cc(C)nc1C` [2-I12, N-{2-[(2,4,6-trimethylpyridin-3-yl)formamido]ethyl}prop-2-enamide], for which the “% of control remaining” value amounted to 83.0937%. In the case of `CN(C)C(=O)C(CNC(=O)CCl)c1ccccc1` (stereo not shown) [7-J12, 3-(2-chloroacetamido)-N,N-dimethyl-2-phenylpropanamide] it was 78.7709%; in that of `C=CC(=O)N1CCCC1c1c(C)nn(CC(C)C)c1Cl` (stereo not shown) [1-F19, 1-{2-[5-chloro-3-methyl-1-(2-methylpropyl)-1H-pyrazol-4-yl]pyrrolidin-1-yl}prop-2-en-1-one], 85.7997%; in that of `Cc1cc(C(=O)CCl)c(C)n1CCC(C)C` [10-L03, 2-chloro-1-[2,5-dimethyl-1-(3-methylbutyl)-1H-pyrrol-3-yl]ethan-1-one], 101.305%. In the case of `Cl.O=C(CCl)NCC1CN(Cc2ccccc2)CC12CCC2` (stereo not shown) [7-H03, N-({6-benzyl-6-azaspiro[3.4]octan-8-yl}methyl)-2-chloroacetamide hydrochloride] it was 87.626%; in that of `COc1ccc(C=C(C#N)C(=O)Nc2cccc([N+](=O)[O-])c2)cc1` [8-I03, 2-cyano-3-(4-methoxyphenyl)-N-(3-nitrophenyl)prop-2-enamide], 85.4521%; in that of `C=CC(=O)NC1(Cc2ccccc2)CC1` [3-P13, N-(1-benzylcyclopropyl)prop-2-enamide], 103.558%. `O=C(CCl)NC1CN(C(=O)C2CC2)C1` [6-P22, 2-chloro-N-(1-cyclopropanecarbonylazetidin-3-yl)acetamide]: the “% of control remaining” value came out at 104.503%. In the case of `N#CC(C(=O)CCl)=C(c1ccc(F)cc1)N1CCOCC1` [10-C20, 4-chloro-2-[(4-fluorophenyl)(morpholin-4-yl)methylidene]-3-oxobutanenitrile] it was 104.111%. In the case of `COc1ccc(C=C(C#N)C(=O)Nc2ccc(C)cc2)cc1O` [9-O12, 2-cyano-3-(3-hydroxy-4-methoxyphenyl)-N-(4-methylphenyl)prop-2-enamide] it was 89.259%; in that of `C=CC(=O)N(C)CC(=O)N1CCC[C@H](NC(=O)C(F)(F)F)[C@@H]1C` (racemic) [2-A20, rac-N-methyl-N-{2-[(2R,3R)-2-methyl-3-(2,2,2-trifluoroacetamido)piperidin-1-yl]-2-oxoethyl}prop-2-enamide], 95.7541%. In the case of `CCCNC(=O)C(C#N)=Cc1ccns1` [9-G03, 2-cyano-N-propyl-3-(1,2-thiazol-5-yl)prop-2-enamide] it was 98.6404%; in that of `COc1cc(C=C(C#N)C(=O)NC2CC2)ccc1O` [9-G12, 2-cyano-N-cyclopropyl-3-(4-hydroxy-3-methoxyphenyl)prop-2-enamide], 85.86%; in that of `N#CC(=Cc1ccccc1OC(F)F)C(=O)Nc1ccccc1F` [8-K21, 2-cyano-3-[2-(difluoromethoxy)phenyl]-N-(2-fluorophenyl)prop-2-enamide], 75.3909%. For the compound `Cc1noc(C)c1S(=O)(=O)N1CCCN(C(=O)C(C)Cl)CC1` (stereo not shown) [7-O11, 2-chloro-1-{4-[(3,5-dimethyl-1,2-oxazol-4-yl)sulfonyl]-1,4-diazepan-1-yl}propan-1-one], the “% of control remaining” value was 78.6387%. As for `CC(C)c1cc(O)nc(N2CCC(NC(=O)CCl)C2)n1` (stereo not shown) [4-D13, 2-chloro-N-{1-[4-hydroxy-6-(propan-2-yl)pyrimidin-2-yl]pyrrolidin-3-yl}acetamide], the “% of control remaining” value came to 101.272%. Under `CC(Cl)C(=O)Nc1ccc([N+](=O)[O-])cc1C#N` (stereo not shown) [5-I15, 2-chloro-N-(2-cyano-4-nitrophenyl)propanamide] stands 91.7936%; under `C=CC(=O)Nc1ccc(C(=O)N[C@H]2COC[C@@H]2OC)cc1` (racemic) [3-C08, rac-N-[(3R,4S)-4-methoxyoxolan-3-yl]-4-(prop-2-enamido)benzamide], 108.498%. Under `N#CC(=Cc1ccc(Cl)cc1)C(=O)Nc1cccc2c1C(=O)NC2=O` [9-D09, 3-(4-chlorophenyl)-2-cyano-N-(1,3-dioxo-2,3-dihydro-1H-isoindol-4-yl)prop-2-enamide] stands 89.259%; under `C=CC(=O)NC(CN1CCCS1(=O)=O)C1CC1` (stereo not shown) [1-H10, N-[1-cyclopropyl-2-(1,1-dioxo-1lambda6,2-thiazolidin-2-yl)ethyl]prop-2-enamide], 105.741%; under `CCS(=O)(=O)c1ccc(NC(=O)CCl)c(O)c1` [4-P21, 2-chloro-N-[4-(ethanesulfonyl)-2-hydroxyphenyl]acetamide], 111.796%.

On to `Cc1cc(C(=O)CCl)c(C)n1CCc1ccc(F)cc1` [10-G14, 2-chloro-1-{1-[2-(4-fluorophenyl)ethyl]-2,5-dimethyl-1H-pyrrol-3-yl}ethan-1-one], for which the “% of control remaining” value is on record as 97.7206%. As to `CC(Cl)C(=O)NCCc1nnc2n1CCCCC2` (stereo not shown) [7-D09, 2-chloro-N-(2-{5H,6H,7H,8H,9H-[1,2,4]triazolo[4,3-a]azepin-3-yl}ethyl)propanamide], the “% of control remaining” value worked out at 81.9428%.

On to `O=C(CCl)NCCCC(=O)N1CCCC1` [7-N08, 2-chloro-N-[4-oxo-4-(pyrrolidin-1-yl)butyl]acetamide], for which the “% of control remaining” value was found to be 86.7008%. `Cn1nc(C(F)(F)F)cc1CN(C(=O)CCl)C1CCCC1` [5-C16, 2-chloro-N-cyclopentyl-N-{[1-methyl-3-(trifluoromethyl)-1H-pyrazol-5-yl]methyl}acetamide]: the “% of control remaining” value turned out to be 89.1037%.

Regarding `Cc1ccc(N(CCC#N)C(=O)CCl)cc1C` [4-A03, 2-chloro-N-(2-cyanoethyl)-N-(3,4-dimethylphenyl)acetamide], the “% of control remaining” value amounted to 114.039%. Under `C=CC(=O)NCc1ccccc1S(=O)(=O)N1CCOCC1` [3-H22, N-{[2-(morpholine-4-sulfonyl)phenyl]methyl}prop-2-enamide] stands 104.97%; under `Cc1c(C=C(C#N)C(=O)Nc2ccccn2)cc(C#N)n1C` [8-G06, 2-cyano-3-(5-cyano-1,2-dimethyl-1H-pyrrol-3-yl)-N-(pyridin-2-yl)prop-2-enamide], 75.6628%; under `Cc1cc(C)cc(N(CCC#N)C(=O)CCl)c1` [5-P18, 2-chloro-N-(2-cyanoethyl)-N-(3,5-dimethylphenyl)acetamide], 106.252%. In the case of `O=C1C=CC(=O)N1c1ccc(F)c(Cl)c1` [10-D15, 1-(3-chloro-4-fluorophenyl)-2,5-dihydro-1H-pyrrole-2,5-dione] it was 25.716%; in that of `COc1cc([N+](=O)[O-])ccc1N1C(=O)C=CC1=O` [10-H13, 1-(2-methoxy-4-nitrophenyl)-2,5-dihydro-1H-pyrrole-2,5-dione], 24.625%.
